From PubChem BioAssay AID1347055 (National Center for Advancing Translational Sciences (NCATS), 2019)
Out of some 54,000 compounds screened, about 120 (0.22%) were called active. Inconclusive results, whose numbers are uncertain, are shown with a selection of clear calls. Calls follow the shape of the dose curve; as a rule, active = well fitted inhibition curve with a large enough effect; inconclusive = small, poorly fitted or top-dose-only effect, or effect the other way; inactive = flat fitted curve, though single readings scatter. Potencies of inconclusive entries are left out as doubtful fits.

molecular target: Fumarate hydratase, mitochondrial (Homo sapiens) (UniProt P07954); test: Identification of activators of human fumarate hydratase by quantitative high-throughput screening; details: FH coupled MDH/diaphorase resazurin fluorescence, 15 min; activity change, negative = inhibition: at 79.9 µM (top of the series); also: the screen sought activators but most active calls are inhibition curves; nearly all actives have a fitted effect of over 45% in size
Sequence of UniProt P07954 (P07954 whole entry, looked up): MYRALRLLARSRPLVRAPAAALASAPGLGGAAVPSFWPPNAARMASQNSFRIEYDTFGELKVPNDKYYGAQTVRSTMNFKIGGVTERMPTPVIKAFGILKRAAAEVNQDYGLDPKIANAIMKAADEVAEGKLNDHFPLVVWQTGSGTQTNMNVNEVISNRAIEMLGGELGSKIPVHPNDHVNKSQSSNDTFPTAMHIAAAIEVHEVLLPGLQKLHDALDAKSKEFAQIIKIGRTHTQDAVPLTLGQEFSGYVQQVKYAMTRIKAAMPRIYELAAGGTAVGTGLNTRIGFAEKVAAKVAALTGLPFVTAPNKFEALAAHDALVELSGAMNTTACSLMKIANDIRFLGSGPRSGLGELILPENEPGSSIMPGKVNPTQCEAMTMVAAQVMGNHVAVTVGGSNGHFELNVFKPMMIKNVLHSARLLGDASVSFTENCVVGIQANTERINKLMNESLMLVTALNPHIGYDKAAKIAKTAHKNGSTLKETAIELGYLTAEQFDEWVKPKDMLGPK
% is scaled to controls: 0 for no effect and ±100 for the full control effect; potency is read from the fitted curve at half-maximal effect; tags tell the direction and shape of the fitted curve.

Structure (SMILES)	Potency	activity change, negative = inhibition
CCc1ccc(NS(=O)(=O)c2cc(-c3cnc(C4CC4)o3)ccc2C)cc1	inconclusive [inhibitor, partial curve]	
CC(C)c1nn2c(=O)cc(COC(=O)c3cccc(NC(=O)c4cccs4)c3)nc2s1	inconclusive [inhibitor, partial curve, poor fit]	
Cc1ccc(NC(=O)C(=O)NCc2ccco2)cc1		inactive: 9.68%
Clc1cc(Cl)c2c(c1)N=C1CCCCCN1C2		inactive: 16.9%
O=c1cc(-c2ccccc2)n2c(SCc3c(F)cccc3Cl)nnc2[nH]1		inconclusive: -40.3% [inhibitor]
Cc1ccc(-n2c(=O)c3cccnc3n2CC(=O)Nc2cc(Cl)ccc2C)cc1	inconclusive [inhibitor, partial curve, poor fit]	
COc1cc(C(=O)NC(c2ccc(Cl)cc2)c2cc(Cl)c3cccnc3c2O)cc(OC)c1OC (stereo unspecified)		inactive: -16.3%
COc1cc(C2c3c(-c4ccccc4O)n[nH]c3C(=O)N2Cc2ccco2)ccc1OCC(C)C (stereo unspecified)	inconclusive [inhibitor, partial curve, poor fit]	
Cc1ccc(-n2nc3c(N4CCC(C(=O)NCc5ccccc5Cl)CC4)nnc(C)c3c2C)cc1		inactive: 3.28%
COC(=O)c1ccc(CSc2nnc3ccc4ccccc4n23)cc1	inconclusive [inhibitor, partial curve, poor fit]	
Cc1nc(NC(=O)N2CCC[C@H]2C(N)=O)sc1-c1ccnc(C(C)(C)C(F)(F)F)c1		inactive: 29.4%
N[C@@H](CC(=O)Nc1ccc(Oc2cc(F)c(F)cc2Br)cc1)C(=O)O	inconclusive [activator, partial curve, poor fit]	
CC(C)C(=O)c1cn(CC(=O)COc2ccc(Oc3ccccc3)cc2)c2ccc(C(=O)O)cc12		inactive: -13.1%
CCCN(CCC)S(=O)(=O)c1ccc(C(=O)Nc2sc3c(c2C(=O)OC)CCN(CC)C3)cc1	inconclusive [inhibitor, partial curve, poor fit]	
CCCCCCc1ccc(O)cc1O	inconclusive [inhibitor, partial curve]	
Cc1[nH]c(/C=C2\C(=O)Nc3ccc(S(=O)(=O)N(C)c4cccc(Cl)c4)cc32)c(C)c1C(=O)N1CCN(C)CC1		inactive: -11.3%
CCn1cc2nc(SCc3cccc(Cl)c3)n(Cc3ccc(C)cc3)c(=O)c2n1	inconclusive [inhibitor, partial curve]	
O=C(NCCc1ccc(Cl)cc1)C(=O)NCC(c1ccco1)S(=O)(=O)c1ccc(Cl)cc1 (stereo unspecified)		inactive: 0.598%
Cc1ccc(S(=O)(=O)c2cn(Cc3cccc(C)c3)c3cc4c(cc3c2=O)OCO4)cc1	inconclusive [inhibitor, single point]	
CC(C)(C)c1ccc(OCC(=O)Nc2ccc(S(=O)(=O)Nc3ncccn3)cc2)cc1		inactive: -12.8%
Cc1nnc(-c2sc(NC(=O)[C@H](C(C)C)n3c(=O)[nH]c4ccccc4c3=O)nc2C)o1	inconclusive [inhibitor, partial curve]	

Structure (SMILES)	Potency	activity change, negative = inhibition
O=C(NC1CCCC1)c1cc(Nc2cccc(C(F)(F)F)c2)nc2ccccc12		inactive: -7.55%
CCOC(=O)c1cccc(NS(=O)(=O)c2ccc(-c3cnc(C4CC4)o3)cc2)c1	inconclusive [inhibitor, partial curve, poor fit]	
Clc1ccc(C(c2ccccc2)c2c[nH]c3ccccc23)s1 (stereo unspecified)	inconclusive [inhibitor, single point]	
CCNC(=O)C#Cc1ccc2c(C(=Nc3ccc(CN(C)C)cc3)c3ccccc3)c(O)[nH]c2c1	inconclusive [activator, partial curve, poor fit]	
CCCCN1C(=O)C(O)(CC(=O)c2ccc(C(C)(C)C)cc2)c2ccccc21 (stereo unspecified)	inconclusive [inhibitor, partial curve, poor fit]	
Cc1cccc(C#Cc2cc(F)cc(C#N)c2)n1	inconclusive [activator, partial curve, poor fit]	
Cc1ccc(O)cc1Nc1ccnc(Nc2cccc(C(N)=O)c2)n1		inactive: -1.38%
O=c1[nH]c2ccc(NCc3ccc(-c4ccc(Br)cc4)o3)cc2[nH]1	inconclusive [inhibitor, partial curve, poor fit]	
CC(C)(O)C1OC1C1=CC(=O)C2(C)OC2C1O (stereo unspecified)		inactive: 0.615%
N#C[C@@H]1C[C@@H]2C[C@@H]2N1C(=O)[C@@H](N)C12CC3CC(CC(O)(C3)C1)C2	inconclusive [activator, full curve]	
CC(CNC(=O)c1ccc2nc(Cc3ccccc3)oc2c1)c1ccccc1 (stereo unspecified)	inconclusive [inhibitor, partial curve, poor fit]	
COc1ccc(-c2nc(CSCC(=O)N3CCN(c4ccc(F)cc4)CC3)c(C)o2)cc1		inactive: -14.2%
CCOC(=O)C1=C(CN2CCN(c3cccc(Cl)c3)CC2)NC(=O)NC1c1ccc(Cl)cc1 (stereo unspecified)	inconclusive [inhibitor, partial curve, poor fit]	
COc1cc(Nc2nc3ccccc3nc2NS(=O)(=O)c2ccc(NC(=O)c3ccc(C)c(OC)c3)cc2)cc(OC)c1	inconclusive [inhibitor, partial curve]	
Cc1ccc(NC(=O)Cc2coc3ccc(C(C)C)cc23)cc1Cl	inconclusive [inhibitor, single point]	
CN1C(C(=O)Nc2ccc(OC(F)(F)F)cc2)=CC(c2cccs2)=NS1(=O)=O	inconclusive [inhibitor, single point]	
CC(C)c1nc2ccc(C(=O)Nc3ccccc3F)cc2o1		inconclusive: -31.2% [inhibitor]
Cc1coc2c1C(=O)C(=O)c1c-2ccc2c(C)cccc12	inconclusive [inhibitor, partial curve]	
Cn1cc(-c2cnn3c(N)c(Br)c(C4CCCNC4)nc23)cn1 (stereo unspecified)	inconclusive [inhibitor, single point]	
Cc1ccc(NC(=O)c2cnn3c2NC(c2ccccc2)=CC3c2ccccc2)cc1 (stereo unspecified)	inconclusive [inhibitor, single point]	
